# Results reported in the supplement of paper PMC11417369.
# ± gives the standard deviation of the averaged measurements. Some of the results follow.
# Tested on: PfAP2-LT AP2 domain (GST-tagged)
# Assay: gcPBM binding intensity (ln(normalized median fluorescence intensity)); higher = stronger DNA binding
# Method in brief: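 GST-tagged P. falciparum DNA-binding domains produced in E. coli were incubated for 1 h on an Agilent 4 × 180k array of primer-extended double-stranded 36-bp intergenic genomic probes with negative controls. Binding intensity is the highest Masliner-normalised natural-log median intensity across replicate spots of either probe orientation, with bound protein detected by Alexa488 anti-GST antibody at 488 nm.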
row,Sequence,gcPBM binding intensity (ln)
1,TATAAATATGTTCTTACACACACGAATATAAATATG [CACACA_site7537],9.1 ± 0.33
2,TTACATAATATATGTACACACGCAAATACTTATAAT [CACACA_site7995],9.03 ± 0.44
3,TACTTTTTTTTTTTTTTTTTTTTTTTTTCCCTTTTT [CACACA_negctrl_site761],8.57 ± 0.65
4,ATATATATATATATATGTACATATGTTAATCTGCAT [XGTACX_site1068],9.78 ± 0.47
5,CTTTTTTTCCATTAAGCATGCACATTCATATTTACT [TGCATGCA_site170],9.07 ± 0.45
6,TATATATATATAGGTTGTACATTTTGATGTTTACGT [XGTACX_site5503],9.55 ± 0.5
7,GTTTATTTATTATAATGTACATTAGTCTGAGGAGTT [XGTACX_site4035],8.91 ± 0.45
8,TTTTATTTATATATAGTGCATATTATTATAAAACAA,8.29 ± 0.47
9,TTTATTTTTTATATATCACTTAAAAAAAAAAAAAAA [CACACA_negctrl_site249],7.86 ± 0.3
10,GAATATAAAAGGAACGGTACAGAAAAAAAAAAAAAA [XGTACX_site3917],8.87 ± 0.57
11,ATTTATATTTTATATACACACATGAACTTATATGGA [CACACA_site3167],8.94 ± 0.44
12,AATATAGTCTCACATACACACATATATATTTATATA [CACACA_site2503],8.99 ± 0.31
13,CTTTTTTTTTTATGCACACACAATTATACATTCCTT [CACACA_site3877],9.59 ± 0.4
14,ATGTAATATATTATATGTACATATTTTTATGTAGAT [XGTACX_site5945],8.86 ± 0.43
15,AAAAAAAAAAAAACTAGTACATATATATAGTATGAA [XGTACX_site6279],8.7 ± 0.55
16,AAAACAAATAAGTAAACACACATATATAATATATAT [CACACA_site2586],9.09 ± 0.4
17,GAATAAATTAAATTCACACATAAAATACAAAATACA [CACACA_site5495],8.87 ± 0.4
18,ACATATATATATATATAAATATATATGTATGTATTT [XGTACX_negctrl_site237],8.93 ± 0.4
19,ATTATATTTGAATGGTGTACTATAATAATGTAGTTT [XGTACX_site8069],8.71 ± 0.42

row,Sequence,gcPBM binding intensity (ln)
1,CATACACGCGGACACACACACACACGCATATATAAC [CACACA_site6427],10.1 ± 0.23
2,CTTATATTAATTATTACACACATATATATAAATGCA [CACACA_site770],8.83 ± 0.41
3,AAAGAAAATAGGTGTACACATAATAAATACAGCTAT [CACACA_site5917],9.44 ± 0.56
4,ACAAGTGTATATGTTATATATATATATATATATATA [CACACA_negctrl_site1686],9.46 ± 0.15
5,AAAATAATATTTAATACACACATAATTACAATATAA [CACACA_site6510],8.88 ± 0.44
6,TTATTACGAACTCTGCAACATATATAAATAAATAAA [CACACA_negctrl_site44],8.41 ± 0.37
7,TACGTATTCATGTATAGTACTCTTTTTTTTAATAAA [XGTACX_site3299],8.56 ± 0.3
8,AAAGATAAAATATATACACACACATAAATACGTACA [CACACA_site8275],9.52 ± 0.3
9,TACCTTTTTTATGTTGCACACTGGGATGTTTTCTAA [CACACA_site1653],9.15 ± 0.39
10,ATTCATATTTTTCAAGTGCGCATTAAAATATTAACC [GTGCAC_site9741],8.88 ± 0.3
11,ATGTCATATATATGTTGTACGAGTTTGTTTATGTAT [XGTACX_site1150],9.22 ± 0.35
12,AGTTTACATTAAATCACGCACACAAAAAAAAAAAAA [CACACA_site2419],9.1 ± 0.52
13,TTCATTTTATAAAAAGCACACATATAGTTATATGCA [CACACA_site9228],8.7 ± 0.42
14,AATGTGCAGAAAAGTGGTACATATGATTGTTAAGAG [XGTACX_site1038],9.1 ± 0.61
15,CCATGATTATTAGATTGTACATAACATACAAATTGA [XGTACX_site314],8.61 ± 0.45
16,AATATATTTTTTTTTGGTACACAAGCACATCTATAC [XGTACX_site2183],8.83 ± 0.45
17,TTTCGATTATGTTTTTGTACGCAATATATTAATTCT [XGTACX_site3634],8.79 ± 0.46
18,ATTTTCTTTCTATGCACACGCACGTATTTGCACCCA [CACACA_site3350],9.38 ± 0.49
19,GAAATAATAAATTAAAAATCGTTTATAACATTTAAC [CACACA_negctrl_site425],8.5 ± 0.45

row,Sequence,gcPBM binding intensity (ln)
1,AGTTTAATATAAAATACACACTACTCTTATAAATAT [CACACA_site6803],8.68 ± 0.41
2,CTTTTTTTTTGATGTTGTACATATATATTATATAAT [XGTACX_site1321],8.8 ± 0.47
3,GTATATAATATTAGTGCACACACAAAAATGTACTAA [CACACA_site8112],9.24 ± 0.33
4,TACAAAATAAAAATAATTCTTTCAAAAAATAATAAA [XGTACX_negctrl_site368],8.29 ± 0.54
5,TGGGAGCACAGACACACACACACACCCATATATATA [CACACA_site335],9.98 ± 0.36
6,GTATAAAAGTAATGTAGTACTTATATATTTTTATTT [XGTACX_site8975],8.59 ± 0.45
7,GGTTGCTTCAGTGAATGTACATAGTGGTAAACAAGC [XGTACX_site166],9.05 ± 0.52
8,TCCTTATATTGGCACACACACACAATAAAATGAAAA [CACACA_site4715],9.62 ± 0.43
9,TGCACATTTATGTAACGTACAAAATATAATATGTTA [XGTACX_site8255],8.74 ± 0.4
10,AGTAATATAATATAAGCACACGTGTATTTATTTAGT [CACACA_site4246],9.18 ± 0.47
11,CATTTATTTATATACACACACACAAAAAAAAAAAAA [CACACA_site7279],9.3 ± 0.4
12,TGCTATATTATTATCGCACACCGTTGATTCTAAATA [CACACA_site1207],8.96 ± 0.45
13,ATAAGTGTATAAAAATGTACGTGTATAAAAATATGT [XGTACX_site8235],9.06 ± 0.43
14,AAAAAAAAAAGAAACACACACATATATATATATAAT [CACACA_site5052],9.44 ± 0.35
15,TATATATATTCTTTAAAACACACGTAAAGAAGAATT [CACACA_site2718],8.74 ± 0.33
16,ATATATGTTATTATTTGTACACACACATATATATCC [XGTACX_site7657],9.63 ± 0.27
17,ATTTCTAATATTTTTGCACACTAAACAATAAATTTC [CACACA_site3943],8.94 ± 0.41
18,GAAAATTTATTTTTGGTGCATGTATTTATTTATTTT,8.86 ± 0.43
19,GTAAGCATCAAAAAAGGTACAGAAATTATAAATAAA [XGTACX_site6708],8.84 ± 0.55
